Measurements from PubChem BioAssay AID1030 (National Center for Advancing Translational Sciences (NCATS), 2008).
Among all 220,000 compounds or so, about 16,000 (7.3%) were called active. The shares of active, inactive and inconclusive entries below differ from those in the screen. Calls come from the whole dose curve; as a rule, active = well fitted inhibition curve with a large enough effect (not every such curve was filed as active); inconclusive = small, poorly fitted or top-dose-only effect, or another doubt; inactive = no such curve, though single readings can be large or run the other way. Potencies of inconclusive entries are left out as doubtful fits.

These compounds were tested against Aldehyde dehydrogenase 1A1 (Homo sapiens) (UniProt P00352) (assay: qHTS Assay for Inhibitors of Aldehyde Dehydrogenase 1 (ALDH1A1)). Details: Purified ALDH1A1, NADH fluorescence, propionaldehyde substrate; series mostly up to 75.3 µM; activity, negative = inhibition: at the top concentration.
Chain of UniProt P00352 (P00352 whole entry, looked up): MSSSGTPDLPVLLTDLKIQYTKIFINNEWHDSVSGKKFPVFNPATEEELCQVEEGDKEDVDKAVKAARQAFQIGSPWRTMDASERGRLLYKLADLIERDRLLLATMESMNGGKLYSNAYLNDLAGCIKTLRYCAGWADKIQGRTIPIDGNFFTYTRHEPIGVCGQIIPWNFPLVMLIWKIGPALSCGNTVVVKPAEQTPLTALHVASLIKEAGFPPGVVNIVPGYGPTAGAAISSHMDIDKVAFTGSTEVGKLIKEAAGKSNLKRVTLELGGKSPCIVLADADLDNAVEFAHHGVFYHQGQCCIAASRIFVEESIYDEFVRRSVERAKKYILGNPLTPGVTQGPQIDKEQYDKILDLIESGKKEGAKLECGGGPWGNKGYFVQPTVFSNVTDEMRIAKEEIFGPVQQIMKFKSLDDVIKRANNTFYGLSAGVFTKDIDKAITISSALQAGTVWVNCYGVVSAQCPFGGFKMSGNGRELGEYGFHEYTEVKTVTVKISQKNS
Potency is the fitted concentration of half-maximal effect; tags give direction and shape of the fitted curve.
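Throughout, for activity, negative = inhibition: plate controls were no enzyme wells and a reference inhibitor.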

With `CCOC(=O)C1(O)Oc2cc(OC)cc(OC)c2C(=O)C1c1ccccc1` (centres undefined) as the compound, how does the Potency read?
Its Potency is inconclusive [inhibitor, partial curve].

How did the “activity, negative = inhibition” value turn out when `O=C(Nc1ccc(Cl)c(Cl)c1)OCCNC(=O)c1cccc(Cl)c1` was run?
Its value is inactive: -3.21%.

Which “activity, negative = inhibition” value does the source give for `COc1ccccc1NC(=O)CCC(=O)N/N=C(/C)c1ccc(C)cc1` here?
The value was inactive: 3.21%.

With `Cc1cnc(CNc2ncncc2-c2cccc(C#N)c2)cn1` as the compound, how does the Potency read?
The Potency was inconclusive [inhibitor, single point].

How did the Potency turn out when `O=C(c1ccc(Cl)cc1)N1CCN(C(=O)c2ccco2)CC1` was run?
Its Potency is active: 25.1 µM.

How did the Potency turn out when `O=C(C1CC12CCCC2)N1CCC(CO)(Cc2ccccc2Cl)CC1` (centres undefined) was run?
The Potency was inconclusive [inhibitor, single point].

How did the “activity, negative = inhibition” value turn out when `OCCC1CN(Cc2cnc(-c3ccccc3)s2)CCN1CCc1ccccc1` (centres undefined) was run?
The value was inactive: -7.11%.

`CSc1nsc(/C=C/Nc2ccc(C)cc2)c1C#N` was tested. Which Potency did it give?
Its Potency is active: 7.51 µM.

`CC(NC(=O)COC(=O)CCc1ccc(S(=O)(=O)N2CCOCC2)cc1)C1CC2CCC1C2` (centres undefined) was tested. Which “activity, negative = inhibition” value did it give?
The value was inactive: -6.31%.

`O=S(=O)(c1cccc2nonc12)N1CCN(c2ccccc2F)CC1` was tested. Which Potency did it give?
The Potency was inconclusive [inhibitor, single point].

Which “activity, negative = inhibition” value does the source give for `CCOC(=O)N1CCN(C(=O)c2cc(C)c3c(C)nn(-c4ccccc4)c3n2)CC1` here?
Its value is inactive: 2.81%.

For `CC1=C(C(=O)OCC(Cl)(Cl)Cl)N2C(=O)C(NC(=O)Cc3ccccc3)C2SC1` (centres undefined), which Potency is on record?
Its Potency is inconclusive [inhibitor, single point].

`CC(NC(=O)COC(=O)/C=C/c1ccc(Cl)cc1)c1ccccc1` (centres undefined) was tested. Which “activity, negative = inhibition” value did it give?
The value was inactive: -3.58%.

For `CCC(=O)c1ccc(OCc2ccc(C(=O)c3ccccc3)cc2)cc1`, which Potency is on record?
Its Potency is inconclusive [inhibitor, full curve].

Which Potency does the source give for `COc1cc(-c2nc(-c3ccccn3)no2)cc(OC)c1OC` here?
Its Potency is inconclusive [inhibitor, single point].

`COc1ccc(C2NC(=S)NC3=C2CCc2ccccc23)cc1OC` (centres undefined) was tested. Which Potency did it give?
The Potency was inconclusive [inhibitor, partial curve].

Which Potency does the source give for `COc1ccccc1CNc1ccnc(-c2cccc(C#N)c2)n1` here?
The Potency was inconclusive [inhibitor, single point].

Which Potency does the source give for `CC(=O)N1N=C(c2ccco2)CC1c1ccc(C)cc1` (centres undefined) here?
The Potency was inconclusive [inhibitor, single point].

For `CCOC(=O)c1c(NC(=O)CSc2nnc(Cc3csc(N)n3)n2C)sc(C)c1C`, which Potency is on record?
Its Potency is active: 7.94 µM.

Which Potency does the source give for `COC(=O)C1=C(C)NC(=S)NC1c1ccc(OC(=O)c2ccco2)cc1` (centres undefined) here?
The Potency was inconclusive [inhibitor, partial curve].

With `c1csc(-c2csc3nc(CN4CCOCC4)nc(NCc4ccc5c(c4)OCO5)c23)c1` as the compound, how does the Potency read?
The Potency was inconclusive [inhibitor, single point].

`C=CCSc1nc(C)c(CC=C)c(=O)[nH]1` was tested. Which Potency did it give?
Its Potency is inconclusive [inhibitor, single point].

With `CCCCC(NC(C)=O)c1nc2ccccc2[nH]1` (centres undefined) as the compound, how does the Potency read?
The Potency was inconclusive [inhibitor, single point].

With `Cc1ccc[n+](-c2nc([O-])sc2C=O)c1` as the compound, how does the “activity, negative = inhibition” value read?
The value was inactive: -2.78%.

Which Potency does the source give for `CCCNc1cc(C)oc(=O)c1C(=O)CCC` here?
Its Potency is inconclusive [inhibitor, partial curve].

`CCOC(=O)c1nnn(-c2nonc2N)c1CSc1ccc(C)cc1` was tested. Which Potency did it give?
The Potency was active: 4.47 µM.

For `Cc1cc(=O)c2c(O)c(O)ccc2o1`, which “activity, negative = inhibition” value is on record?
Its value is inactive: -6.9%.

How did the “activity, negative = inhibition” value turn out when `COc1cccc([C@@H]2Oc3ccc(OC)cc3C(=O)[C@H]2OC(=O)NCCOc2ccccc2)c1` was run?
Its value is inactive: 0.889%.

`O=C(Nc1ccccc1)c1nsnc1C(=O)Nc1ccccc1` was tested. Which “activity, negative = inhibition” value did it give?
The value was inactive: 5.6%.

With `COc1ccc(CCNC(=O)c2cc(=O)n(C)c(=O)n2C)cc1OC` as the compound, how does the “activity, negative = inhibition” value read?
Its value is inactive: 3.95%.

With `c1ccc(-n2nnnc2Sc2ncnc3sc4c(c23)CCCC4)cc1` as the compound, how does the Potency read?
The Potency was inconclusive [inhibitor, single point].

With `COc1ccc2c(c1O)C(=O)c1ccccc1C2=O` as the compound, how does the “activity, negative = inhibition” value read?
Its value is inactive: 8.76%.

`CCOc1cc(/C=C2/NC(=O)N(CC(=O)OC)C2=O)ccc1OC` was tested. Which Potency did it give?
Its Potency is inconclusive [inhibitor, single point].

How did the Potency turn out when `O=C(N/N=C/c1coc2ccccc2c1=O)c1cn(-c2ccccc2)nc1-c1ccc(F)cc1` was run?
Its Potency is inconclusive [inhibitor, single point].

For `C(=C\c1nc(-c2cccnc2)no1)/c1ccccc1`, which Potency is on record?
Its Potency is inconclusive [inhibitor, single point].

Which Potency does the source give for `CN(CCCNC(=O)c1ccc(N2CCCC2=O)cc1)c1ccccc1` here?
Its Potency is inconclusive [inhibitor, single point].

How did the Potency turn out when `O=C(CCN1C(=O)c2ccccc2C1=O)N1CCCCCC1` was run?
Its Potency is active: 20 µM.

With `O=C(Nc1ccccc1F)c1cc2nc(C(F)F)cc(C(F)F)n2n1` as the compound, how does the Potency read?
Its Potency is inconclusive [inhibitor, single point].

With `COc1ccc2c(c1)C(=O)[C@@H](OC(=O)NS(=O)(=O)c1ccc(F)cc1)[C@H](c1ccc(OC)c(Br)c1)O2` as the compound, how does the “activity, negative = inhibition” value read?
Its value is inactive: -13.6%.

`Cc1ccc(SCC(=O)N2c3ccccc3Sc3ccccc32)cc1` was tested. Which Potency did it give?
Its Potency is active: 3.55 µM.

With `COc1ccc(-c2csc(NC(=O)c3ccccc3NS(=O)(=O)c3ccc(C)cc3)n2)cc1` as the compound, how does the Potency read?
Its Potency is inconclusive [inhibitor, single point].

Which Potency does the source give for `O=C1C=CC(=O)N1CCNc1ncc(C(F)(F)F)cc1Cl` here?
Its Potency is active: 0.631 µM.

Which Potency does the source give for `CC(C)CNC(=O)COC(=O)c1cc(Cl)cc(Cl)c1N` here?
The Potency was inconclusive [inhibitor, partial curve].

`COc1ccc(S(=O)(=O)N2CCCC(C(=O)Nc3ccc4c(c3)OCCO4)C2)cc1` (centres undefined) was tested. Which Potency did it give?
The Potency was inconclusive [inhibitor, single point].

`Cc1nc2c(ccc3c([N+](=O)[O-])cccc32)c(C)c1C` was tested. Which Potency did it give?
Its Potency is inconclusive [inhibitor, single point].

With `CC(=O)Nc1ccc(NC(=O)C(C)OC(=O)C2(c3ccc(Cl)cc3)CCCC2)cc1` (centres undefined) as the compound, how does the “activity, negative = inhibition” value read?
Its value is inactive: -13.6%.

With `COc1ccc(/C=C/C(=O)NCCSCc2ccco2)cc1` as the compound, how does the Potency read?
The Potency was inconclusive [inhibitor, single point].

Which “activity, negative = inhibition” value does the source give for `CN(C(=O)c1ccc2c(=O)n3c(nc2c1)CCCCC3)c1ccccc1` here?
The value was inactive: 5.93%.

`CCN(CC)Cc1c(C(=O)N2CCc3ccccc3C2)nc2ccc(Cl)cn12` was tested. Which Potency did it give?
Its Potency is active: 12.6 µM.
